Assay results taken from article PMC4336329 (PLoS ONE, 2015).
About 2,200 (0.71%) of roughly 310,000 compounds showed an effect of 50% or more. Effects have a minus sign here. The list shows a part of the results.

These molecules were tested against human ether-à-go-go-related gene (hERG) potassium channel (human, UniProt Q12809) (assay: primary screen, population patch clamp on CHO cells stably expressing hERG).
Chain of human ether-à-go-go-related gene (hERG) potassium channel (Q12809 whole entry, looked up): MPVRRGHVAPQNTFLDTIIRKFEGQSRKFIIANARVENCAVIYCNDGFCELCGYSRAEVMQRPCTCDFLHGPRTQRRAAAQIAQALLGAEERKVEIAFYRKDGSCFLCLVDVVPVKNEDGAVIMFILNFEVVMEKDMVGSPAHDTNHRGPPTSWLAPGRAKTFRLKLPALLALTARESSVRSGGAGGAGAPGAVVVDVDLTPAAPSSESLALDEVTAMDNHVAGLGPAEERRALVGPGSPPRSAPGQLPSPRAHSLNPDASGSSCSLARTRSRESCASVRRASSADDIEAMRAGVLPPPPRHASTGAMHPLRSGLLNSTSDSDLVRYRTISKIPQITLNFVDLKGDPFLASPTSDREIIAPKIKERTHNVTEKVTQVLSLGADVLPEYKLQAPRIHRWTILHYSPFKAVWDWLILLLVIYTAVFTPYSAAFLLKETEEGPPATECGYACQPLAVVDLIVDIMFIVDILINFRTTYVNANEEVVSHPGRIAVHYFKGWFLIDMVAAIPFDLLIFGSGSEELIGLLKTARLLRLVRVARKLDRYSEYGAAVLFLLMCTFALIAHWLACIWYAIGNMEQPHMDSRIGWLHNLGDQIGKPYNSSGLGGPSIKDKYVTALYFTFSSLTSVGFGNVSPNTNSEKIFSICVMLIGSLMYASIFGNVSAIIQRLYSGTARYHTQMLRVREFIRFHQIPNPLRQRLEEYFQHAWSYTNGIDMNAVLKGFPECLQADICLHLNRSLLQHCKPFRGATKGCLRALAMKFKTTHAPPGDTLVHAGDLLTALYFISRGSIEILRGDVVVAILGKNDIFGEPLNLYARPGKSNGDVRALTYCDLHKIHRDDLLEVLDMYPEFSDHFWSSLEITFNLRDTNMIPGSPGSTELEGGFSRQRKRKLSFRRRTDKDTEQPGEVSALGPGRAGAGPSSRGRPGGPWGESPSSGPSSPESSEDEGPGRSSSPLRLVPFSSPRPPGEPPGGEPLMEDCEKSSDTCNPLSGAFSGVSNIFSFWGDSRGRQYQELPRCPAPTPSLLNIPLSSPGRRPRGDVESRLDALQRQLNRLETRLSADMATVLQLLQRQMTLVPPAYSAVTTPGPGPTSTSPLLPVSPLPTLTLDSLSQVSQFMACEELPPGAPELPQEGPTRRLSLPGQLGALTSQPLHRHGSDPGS

| Structure (SMILES) | hERG current change (%, negative = inhibition) at 1uM |
| --- | --- |
| COC(=O)C1=C[C@@H](C(=O)OC)[C@@H]2C3=C(C(=O)[C@@]2(C)NC(=O)c2ccccc2)[C@H](c2ccccc2)n2c(=O)n(-c4ccccc4)c(=O)n2[C@@H]3C1 | 16% |
| CCOC(=O)c1cc2c(ccn2C)n1CC(=O)N(C)C | 5.01% |
| CCOC(=O)CN1CC23C=CC(O2)C(C(=O)NCc2ccc(F)cc2)C3C1=O (centres unmarked) | 8.57% |
| CC1CCCCN1CCNC(=O)Cn1nc(-c2ccccc2)ccc1=O (centres unmarked) | 12.7% |
| CC(C)(C)N1CC(c2nc3ccccc3n2Cc2ccccc2)CC1=O (centres unmarked) | 0.803% |
| O=C(CSc1nc2ccccc2c(=O)n1-c1ccc(F)cc1)Nc1ccc(N2CCOCC2)cc1 | 0.241% |
| CC(C)c1nnc(NC(=O)Cn2nc(-c3ccc4c(c3)OCCO4)ccc2=O)s1 | 15.3% |
| CCOc1ccc(-n2c(Cc3ccccc3)nnc2SCc2c(C)noc2C)cc1 | -13.6% |
| O=C(NC1CCCC1)C(c1ccc(F)cc1)N(Cc1ccc(Cl)cc1)C(=O)CCl (centres unmarked) | -0.346% |
| CCN1CCN(S(=O)(=O)c2ccc(Cl)c(C(=O)Nc3ccccc3N3CCOCC3)c2)CC1 | 21.7% |
| O=C(Cc1ccccc1)N1CCN(S(=O)(=O)c2ccc([N+](=O)[O-])cc2)CC1 | -24.6% |
| O=C1c2ccccc2NC(c2cccc([N+](=O)[O-])c2)N1CCc1ccccc1 (centres unmarked) | 11.3% |
| Cc1ccc(C2Nc3ccccc3NC3=C2C(=O)CC(C)(C)C3)c(O)c1 (centres unmarked) | 5.6% |
| CC(=O)n1c2ccccc2c2nc(NC(C)C)sc21 | 3.52% |
| CC(C)CC(CC(C)C)=NNC(=O)c1ccc(CSc2nncn2C)cc1 | 5.68% |
| Cc1ccc(C(=O)Oc2cc(N)n(S(=O)(=O)c3ccc(F)cc3)n2)cc1 | 16.5% |
| CCOc1ccc(OCC)c(NC(=O)C2CCN(S(=O)(=O)c3cnc[nH]3)CC2)c1 | -9.35% |
| Cc1cc(N2CCN(S(=O)(=O)c3ccc(C)c(C)c3)CC2)c2ccccc2n1 | -18.3% |
| O=C(NN=C1c2ccccc2-c2ccccc21)c1ccccc1Br | 4.88% |
| Cc1cc(NC(=O)CN2CCN(S(=O)(=O)c3ccc(Cl)cc3)CC2)no1 | 0.547% |
| CC(=O)N1c2ccc(S(=O)(=O)N3CCCC3)cc2CC1C(=O)NC(C)C (centres unmarked) | 14% |
| O=C1CCCC(O)=C1N=Nc1ccc(S(=O)(=O)N2CCOCC2)cc1 | 7.14% |
| COc1ccc(-c2ccc(C#N)c(SCC(=O)NCc3ccco3)n2)cc1OC | 10.5% |

| Structure (SMILES) | hERG current change (%, negative = inhibition) at 1uM |
| --- | --- |
| CCc1ccc(OCC(=O)Nc2ccc(N3CCN(C(=O)c4ccccc4)CC3)cc2)cc1 | 5.37% |
| O=C(Nc1nnc(-c2ccccc2F)s1)c1ccccc1F | 9.06% |
| CCN(CC)S(=O)(=O)c1ccc(OC)c(NC(=O)CC2CCCC2)c1 | 3.73% |
| Cc1cc2cc(CNS(=O)(=O)N(C)C)ccc2[nH]1 | 10.6% |
| Cc1cc(C)c(C)c(S(=O)(=O)N2CCC(C(=O)NCCCN3CCOCC3)CC2)c1C | 11.8% |
| Cc1ccc(C(=O)C(C)[n+]2cccc(C(N)=O)c2)cc1.[Br-] (centres unmarked) | 4.11% |
| CCc1cccc(NC(=O)CC2Oc3ccccc3NC2=O)c1 (centres unmarked) | 14.3% |
| COc1nc(-c2ccccc2)c2cc(C)ccc2n1 | 18.3% |
| CCN(CC)c1ccc(/C=N/OCC(=O)Nc2cccc(C)c2)cc1 | 10.8% |
| O=C(CN1CCN(CCN2C(=O)c3cccc4cccc(c34)C2=O)CC1)c1ccc(F)cc1 | 0.126% |
| COc1ccc(CN2CCCC(CNC(=O)c3ccc(F)cc3)C2)c(F)c1 (centres unmarked) | -50.4% |
| Cc1nc2nc(C)c(CCC(=O)O)c(C)n2n1 | 16.7% |
| O=C1/C(=C/c2ccc(O)c(O)c2)Oc2cc(O)ccc21 | 9.11% |
| Cn1c(=O)n(C)c2cc([N+](=O)[O-])c(N3CCN(S(=O)(=O)c4ccc5ccccc5c4)CC3)cc21 | 12.7% |
| S=c1[nH]c2cc3ccccc3cc2[nH]1 | 8.7% |
| Clc1ccccc1-c1ccc(/C=N/Nc2nncc(-c3ccccc3)n2)o1 | 1.05% |
| Cc1ccc(C)c(S(=O)(=O)N2CCCOC2CNC(=O)C(=O)NCCCn2ccnc2)c1 (centres unmarked) | 1.43% |
| COCCn1c(=S)[nH]c2cc(C(=O)N3CCCC(C)C3)ccc2c1=O (centres unmarked) | 15.7% |
| O=C(Cc1cccs1)Nc1ccc(F)cc1 | 11.6% |
| COC(=O)c1ccccc1NC(=O)c1ccc2c(c1)CC(C)O2 (centres unmarked) | 0.443% |
| COc1ccc(C(O)P(=O)(OC(C)C)OC(C)C)cc1 (centres unmarked) | 13% |
| Cc1nnc2sc(-c3ccc(NC(=O)CSc4ccc(Cl)cc4)cc3)nn12 | 3.52% |
| Cl.O=C(CN1CCCC1)Nc1cccc(Cl)c1 | 5.1% |

| Structure (SMILES) | hERG current change (%, negative = inhibition) at 1uM |
| --- | --- |
| O=C(Cn1c(=O)n(Cc2ccco2)c(=O)c2c3c(sc21)CCCC3)Nc1ccccc1 | 9.46% |
| COc1ccc2oc(=O)c(-c3csc(Nc4ccc(O)cc4)n3)cc2c1 | 4.31% |
| COC(=O)/C(C#N)=C/c1c(-c2ccccc2)nc2n1CCS2 | 7.49% |
| Nc1nc(CN2CCOCC2)cs1 | 7.23% |
| COc1ccc(-c2cnc3nc[nH]c(=O)c3n2)cc1 | 9.68% |
| COc1ccc(-c2cc(C(F)(F)F)n3nc(C(=O)Nc4cc(C)on4)cc3n2)cc1OC | 6.68% |
| COc1ccc(C)cc1S(=O)(=O)N1CCN(S(=O)(=O)c2cc(C(=O)O)ccc2C)CC1 | 9.34% |
| CCCC/C(C)=N/NC(=O)NC1CCCCC1 | 11.1% |
| O=c1[nH][nH]c2ccccc2c1=O | 14.8% |
| Cc1ccc(/C=N/n2c(C)cc(C)c(C#N)c2=O)cc1 | 6.86% |
| COCCn1c(/C=C/c2ccccc2)nc2ccccc21 | -0.785% |
| O=C(NCCCc1ccccc1)c1ccc(CS(=O)Cc2ccccc2Cl)o1 (centres unmarked) | -0.472% |
| COc1ccc(CCn2c(O)c(C3=c4ccccc4=NC3=O)sc2=S)cc1OC | 18.8% |
| Cn1c(=O)n(C)c2cc(N3CCOCC3)c(NC(=O)c3ccc(F)cc3)cc21 | 11.3% |
| Brc1ccc(-c2nnc3sc(CNC4CCCC4)cn23)cc1 | 9.48% |
| CCN(CC)c1ccc(CC2C(=O)N(C)C(=O)N(C)C2=O)cc1 | 22.1% |
| Clc1ccc(-c2nnc(-c3ccccc3)o2)cn1 | 8.12% |
| CCOc1ccc(NS(=O)(=O)c2ccc3c(c2)CCN3C(C)=O)cc1 | 5.99% |
| Cc1ccccc1C(=O)OC1CCN(C)CC1.Cl | 13% |
| CCC(Sc1ncccc1C(=O)O)C(=O)N1CCCC1 (centres unmarked) | 4.61% |
| COC(=O)Cc1ccc(NC(=S)N2CCN(CCO)CC2)cc1 | 10.9% |
| C/C(=N\Nc1ccc(C(F)(F)F)cc1[N+](=O)[O-])C(C)C | 18.6% |
| CCCN1C(=O)c2ccccc2NC1c1ccc(O)c(OCC)c1 (centres unmarked) | 16.9% |

| Structure (SMILES) | hERG current change (%, negative = inhibition) at 1uM |
| --- | --- |
| COc1ccc2c(c1)CC/C(=C\C=C\c1ccccc1)C2=O | 11.7% |
| O=C(Sc1cccc2cccnc12)c1ccccc1Br | 9.17% |
| CCOC(=O)c1ccc(NC(=O)c2ccnn2C)cc1 | 14.5% |
| Cn1nc(C(=O)Nc2nc3ccc(S(C)(=O)=O)cc3s2)ccc1=O | -0.35% |
| CCn1c(SCC(=O)Nc2ccc(C)cc2)nnc1-c1ccccn1 | -21.5% |
| CC(=O)c1cnc2c(-c3ccccc3)c(-c3ccccc3)nn2c1C | 11.5% |
| Cc1cc(Cl)ccc1NC(=S)NCc1ccc(F)cc1 | 12% |
| C[C@H]1COc2c(N3CCN(C)CC3)c(F)cc3c(=O)c(C(=O)O)cn1c23 | 16.8% |
| O=c1oc2ccccc2c(NCc2ccccc2F)c1[N+](=O)[O-] | 5.89% |
| O=[N+]([O-])c1ccc2oc(-c3cccc(O)c3)nc2c1 | -5.21% |
| COc1ccccc1NC(=O)c1cc(Cl)nnc1Cl | 16.9% |
| Cc1ccc2c(c1)c1n[nH]c(=S)nc1n2CCc1ccccc1 | 15.2% |
| CCS(=O)(=O)N1Cc2ccccc2CC1C(=O)Nc1nnc(SCc2ccc(F)cc2)s1 (centres unmarked) | 9.5% |
| O=C(Nc1ccncc1)Nc1ccc(F)c(Cl)c1 | 5.13% |
| COCCCN(C(=O)c1cc2c(s1)CCCCC2)c1c(N)n(Cc2ccccc2)c(=O)[nH]c1=O | 15.8% |
| COc1ccc(-c2c(C)oc3c(CN4CCCCC4C)c(O)ccc3c2=O)cc1OC (centres unmarked) | 5.43% |
| O=C(O)C(=O)O.O=C(c1ccco1)N1CCN(Cc2ccccc2Br)CC1 | 13% |
| CCCc1cc(=O)[nH]c(SCC(=O)N(C)C2CCS(=O)(=O)C2)n1 (centres unmarked) | 16.2% |
| CCOC(=O)Cc1nnc(-c2ccccc2)o1 | 5.78% |
| O=C(O)CCC(=O)Nc1ccc(SSc2ccc(NC(=O)CCC(=O)O)cc2)cc1 | 3.15% |
